Results as given in the antibiotic and cytotoxicity screens of Wong et al. (2023).
This is one part of the list.

Each molecule was assayed on S. aureus RN4220 (assay: growth inhibition call (relative growth <= 0.2)). Settings: 50 µM.
`COc1ccc(NC(=O)N(C)C[C@@H]2Oc3ccc(NS(=O)(=O)c4cn(C)cn4)cc3CC(=O)N([C@H](C)CO)C[C@@H]2C)cc1` was tested, and the growth inhibition call was “inactive”.
In the case of `COc1cccc(-c2ccc3c(c2)O[C@@H](CN(C)C(=O)C2CCC2)[C@H](C)CN([C@@H](C)CO)S3(=O)=O)c1`, the growth inhibition call was “inactive”.
With `C[C@@H](NC(=O)C[C@H]1CC[C@H](NC(=O)CN2CCOCC2)[C@@H](CO)O1)c1ccccc1` the growth inhibition call was “inactive”.
With `C[C@@](Cc1ccc(O)c(O)c1)(NN)C(=O)O` the growth inhibition call was “inactive”.
`Cc1noc(C)c1NC(=O)Nc1ccc2c(c1)C(=O)N([C@H](C)CO)C[C@@H](C)[C@@H](CN(C)S(=O)(=O)c1ccccc1)O2` was tested, and the growth inhibition call was “inactive”.
For `CCOC(=O)c1ccc(CNS(=O)(=O)c2ccc(S(=O)(=O)N3CCOCC3)cc2)o1`, the growth inhibition call was “inactive”.
In the case of `NC1=N[C@H]2CS(=O)(=O)C[C@@H]2S1`, the growth inhibition call was “inactive”.
`C[C@@H]1CN([C@@H](C)CO)C(=O)Cc2cc(NC(=O)Nc3ccc(F)cc3)ccc2O[C@@H]1CN(C)Cc1ccc(C(=O)Nc2ccccc2N)cc1` was tested, and the growth inhibition call was “inactive”.
`Cc1noc(C)c1NC(=O)Nc1ccc2c(c1)CC(=O)N([C@H](C)CO)C[C@@H](C)[C@@H](CN(C)Cc1ccc(Cl)c(Cl)c1)O2` was tested, and the growth inhibition call was “inactive”.
`C[C@@H]1CCCCO[C@@H](CN(C)C(=O)Nc2ccc3c(c2)OCO3)[C@H](C)CN([C@H](C)CO)C(=O)c2cc(NC(=O)Nc3ccc(C(F)(F)F)cc3)ccc2O1` was tested, and the growth inhibition call was “inactive”.
With `NCC1OC(OC2C(N)CC(N)C(OC3OC(CO)C(O)C(N)C3O)C2O)C(N)CC1O` (stereo unspecified) the growth inhibition call was “active”.
In the case of `COCC(=O)N1C[C@@H](C)[C@@H](OC)CN(C)C(=O)c2cc(NC(=O)c3ccc(OC)cc3)ccc2OC[C@H]1C`, the growth inhibition call was “inactive”.
In the case of `C[C@@H]1CCCCO[C@@H](CN(C)C(=O)Nc2ccc(F)cc2)[C@H](C)CN([C@H](C)CO)C(=O)c2cc(NS(=O)(=O)c3ccc(Cl)cc3)ccc2O1`, the growth inhibition call was “inactive”.
With `Nc1ccccc1O` the growth inhibition call was “inactive”.
`Cc1noc(C)c1S(=O)(=O)N(C)C[C@@H]1Oc2ccc(NC(=O)CCN3CCOCC3)cc2CC(=O)N([C@@H](C)CO)C[C@H]1C` was tested, and the growth inhibition call was “inactive”.
For `Cc1noc(C)c1NC(=O)Nc1ccc2c(c1)C(=O)N([C@@H](C)CO)C[C@@H](C)[C@@H](CN(C)S(=O)(=O)c1cn(C)cn1)O2`, the growth inhibition call was “inactive”.
For `C[C@H]1CN([C@@H](C)CO)C(=O)c2cc(NC(=O)c3ccncc3)ccc2O[C@@H]1CN(C)S(=O)(=O)c1ccccc1`, the growth inhibition call was “inactive”.
For `C[C@H]1CN([C@@H](C)CO)C(=O)c2c(c3ccccc3n2C)-c2ccccc2CO[C@@H]1CN(C)C(=O)Nc1cccc(Cl)c1Cl`, the growth inhibition call was “inactive”.
In the case of `Cc1cc(C(=O)Nc2cccc3c2O[C@@H](CN(C)C(=O)Nc2c(C)noc2C)[C@@H](C)CN([C@@H](C)CO)C3=O)n(C)n1`, the growth inhibition call was “inactive”.
With `COc1ccc(S(=O)(=O)N(C)C[C@H]2Oc3ncc(-c4ccncc4)cc3C(=O)N([C@H](C)CO)C[C@H]2C)cc1` the growth inhibition call was “inactive”.
For `c1cn(CCN2CCNCC2)cn1`, the growth inhibition call was “inactive”.
With `CC(C)=CCCC(C)C1CCC2(C)C3=C(CCC12C)C1(C)CCC(O)C(C)(C)C1CC3` (stereo unspecified) the growth inhibition call was “inactive”.
With `CCN(CC)c1ccc(N2CC=C[C@@]34O[C@@H]5C=CCCOC(=O)[C@@H]5[C@H]3C(=O)N(CCCO)[C@@H]4C2=O)cc1` the growth inhibition call was “inactive”.
`C[C@H](CO)N1C[C@H](C)[C@H](CN(C)S(=O)(=O)c2cn(C)cn2)Oc2c(NC(=O)C3CCOCC3)cccc2C1=O` was tested, and the growth inhibition call was “inactive”.
In the case of `Cc1ccc([N+](=O)[O-])cc1S(N)(=O)=O`, the growth inhibition call was “inactive”.
`COc1ccc(CN(C)C[C@H]2OCCCC[C@@H](C)Oc3ccc(NC(=O)Nc4c(C)noc4C)cc3C(=O)N([C@@H](C)CO)C[C@H]2C)cc1` was tested, and the growth inhibition call was “inactive”.
In the case of `COc1ccc(NC(=O)Nc2ccc3c(c2)C(=O)N([C@H](C)CO)C[C@H](C)[C@@H](CN(C)C(=O)NC2CCCCC2)OCCCC[C@H](C)O3)cc1`, the growth inhibition call was “inactive”.
For `COc1ccc(S(=O)(=O)Nc2ccc3c(c2)CC(=O)N([C@@H](C)CO)C[C@@H](C)[C@@H](CN(C)Cc2ccc(-c4ccccc4)cc2)O3)cc1`, the growth inhibition call was “inactive”.
For `CN(C)CCCNC(=O)C[C@H]1CC[C@@H]2[C@H](COc3ccc(NC(=O)c4cccc(F)c4)cc3C(=O)N2C)O1`, the growth inhibition call was “inactive”.
With `COc1ccc([C@@H]([C@H](Cc2ccccc2)OC(C)=O)N2C[C@@H](CC(=O)N(C)C)[C@@H]3C(=NO[C@H]3c3ccccc3)[C@@H]2Cc2ccccc2)cc1` the growth inhibition call was “inactive”.
In the case of `CCCCCCNC(=O)n1cc(F)c(=O)[nH]c1=O`, the growth inhibition call was “inactive”.
